Results on two molecules are retold here after publication PMC8161014.

Amino acid sequences for entries named in this document (tags omitted). A change or cut given only in a name is not applied to a line headed by its entry. Chains listed by the source or under a name are the forms on record and can include a tag or linker. Residues count along the entry.
StrepII-FLAG-tagged DCAF12 (∆1–11) (Q5T6F0, residues 12-453): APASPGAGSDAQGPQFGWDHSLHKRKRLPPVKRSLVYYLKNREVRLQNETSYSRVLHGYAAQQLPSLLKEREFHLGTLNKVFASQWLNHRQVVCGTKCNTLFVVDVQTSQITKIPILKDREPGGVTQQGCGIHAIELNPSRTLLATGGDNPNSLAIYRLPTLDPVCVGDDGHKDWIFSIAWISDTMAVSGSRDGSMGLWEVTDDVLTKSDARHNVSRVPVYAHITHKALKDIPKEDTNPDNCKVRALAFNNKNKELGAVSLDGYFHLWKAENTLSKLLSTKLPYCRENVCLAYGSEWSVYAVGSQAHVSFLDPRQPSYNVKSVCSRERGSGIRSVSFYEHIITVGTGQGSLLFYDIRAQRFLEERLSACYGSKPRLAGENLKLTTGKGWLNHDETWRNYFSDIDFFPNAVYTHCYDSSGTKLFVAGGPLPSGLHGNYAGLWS
StrepII-FLAG-tagged DCAF12 (∆1–38) (Q5T6F0, residues 39-453): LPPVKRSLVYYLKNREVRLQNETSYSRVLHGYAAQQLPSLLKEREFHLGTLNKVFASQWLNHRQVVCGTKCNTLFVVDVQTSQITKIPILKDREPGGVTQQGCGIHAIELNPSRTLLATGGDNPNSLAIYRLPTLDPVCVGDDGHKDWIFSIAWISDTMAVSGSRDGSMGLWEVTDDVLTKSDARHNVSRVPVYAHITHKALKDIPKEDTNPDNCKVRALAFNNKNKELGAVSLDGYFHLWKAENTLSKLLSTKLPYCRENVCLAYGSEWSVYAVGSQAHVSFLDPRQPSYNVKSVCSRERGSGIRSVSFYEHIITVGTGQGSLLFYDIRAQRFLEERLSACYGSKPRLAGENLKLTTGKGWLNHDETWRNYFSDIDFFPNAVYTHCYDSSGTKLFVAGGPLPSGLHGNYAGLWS
UniProt Q5VU92: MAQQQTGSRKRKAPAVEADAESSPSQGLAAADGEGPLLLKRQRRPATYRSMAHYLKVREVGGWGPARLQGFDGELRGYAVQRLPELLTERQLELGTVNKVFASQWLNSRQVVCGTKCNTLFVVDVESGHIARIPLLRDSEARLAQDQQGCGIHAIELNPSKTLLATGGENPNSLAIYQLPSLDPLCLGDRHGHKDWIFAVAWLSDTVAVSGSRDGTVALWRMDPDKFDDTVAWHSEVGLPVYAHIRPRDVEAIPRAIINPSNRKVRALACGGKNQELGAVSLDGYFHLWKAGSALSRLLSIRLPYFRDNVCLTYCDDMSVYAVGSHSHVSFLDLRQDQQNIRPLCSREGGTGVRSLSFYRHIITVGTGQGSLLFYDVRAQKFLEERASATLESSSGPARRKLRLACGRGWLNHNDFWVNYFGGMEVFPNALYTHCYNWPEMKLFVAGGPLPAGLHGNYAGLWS
UniProt Q5VW00: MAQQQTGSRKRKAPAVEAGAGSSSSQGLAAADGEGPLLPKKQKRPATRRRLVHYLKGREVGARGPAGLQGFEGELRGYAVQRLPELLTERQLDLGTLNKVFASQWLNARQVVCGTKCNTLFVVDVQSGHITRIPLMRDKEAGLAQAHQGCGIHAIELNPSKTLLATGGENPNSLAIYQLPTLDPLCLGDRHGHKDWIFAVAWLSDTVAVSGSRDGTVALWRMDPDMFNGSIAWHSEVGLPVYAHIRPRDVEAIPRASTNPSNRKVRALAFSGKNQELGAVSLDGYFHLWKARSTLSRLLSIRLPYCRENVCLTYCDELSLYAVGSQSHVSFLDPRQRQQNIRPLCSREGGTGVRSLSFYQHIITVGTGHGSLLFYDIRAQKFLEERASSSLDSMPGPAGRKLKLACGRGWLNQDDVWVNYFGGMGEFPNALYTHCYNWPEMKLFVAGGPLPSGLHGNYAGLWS

No constants are given. Whether binding was seen depends on the method and setting. In cells and extracts the contact can be indirect. Some entries that bind do so weakly or less than the wild type. For some assays here: Where a sequence is shown, tags or fusion partners need not be part of it.

Assay [1] has as its target StrepII-FLAG-tagged DCAF12 (∆1–38) (human) (UniProt Q5T6F0). In words: co-IP; MOV10 co-precipitated with SF-DCAF12^ΔNLSs in several cancer cell lines (Figure S1a,b,c; legend not shown).
Assay [2] addresses StrepII-FLAG-tagged DCAF12L1 (human) (UniProt Q5VU92). As to the kind of experiment: pull-down; StrepII-FLAG-tagged substrate receptors transfected into HEK293T, MLN4924 for 6 h before harvesting; whole-cell lysates subjected to affinity purification with Strep-TactinXT resin; eluates immunoblotted for endogenous proteins.
Assay [3] has as its target StrepII-FLAG-tagged DCAF12 (WT) (human) (UniProt Q5T6F0). Described as above.
The target in assay [4] is StrepII-FLAG-tagged DCAF12 (∆1–11) (human) (UniProt Q5T6F0). Described as above.
Assay [5] concerns the target StrepII-FLAG-tagged DCAF12 (∆1–38) (human) (UniProt Q5T6F0). The description is as above.
The target in assay [6] is StrepII-FLAG-tagged DCAF12L2 (human) (UniProt Q5VW00). The assay is described as above.
Assay [7] has as its target StrepII-FLAG-tagged DCAF12 (WT) (human) (UniProt Q5T6F0). In words: pull-down; HEK293 cells with doxycycline-inducible HA-tagged MOV10 (WT) or (E1002X) transfected with StrepII-FLAG-tagged DCAF12 (WT) or (∆1–38); DOX 100 ng/mL 24 h, MLN4924 for the last 6 h; affinity purification of whole-cell lysates, immunoblot.
The target in assay [8] is StrepII-FLAG-tagged DCAF12 (∆1–38) (human) (UniProt Q5T6F0). Described as above.

B1: endogenous MOV10 (protein, UniProt Q9HCE1 1-1003)
chain: MPSKFSCRQLREAGQCFESFLVVRGLDMETDRERLRTIYNRDFKISFGTPAPGFSSMLYGMKIANLAYVTKTRVRFFRLDRWADVRFPEKRRMKLGSDISKHHKSLLAKIFYDRAEYLHGKHGVDVEVQGPHEARDGQLLIRLDLNRKEVLTLRLRNGGTQSVTLTHLFPLCRTPQFAFYNEDQELPCPLGPGECYELHVHCKTSFVGYFPATVLWELLGPGESGSEGAGTFYIARFLAAVAHSPLAAQLKPMTPFKRTRITGNPVVTNRIEEGERPDRAKGYDLELSMALGTYYPPPRLRQLLPMLLQGTSIFTAPKEIAEIKAQLETALKWRNYEVKLRLLLHLEELQMEHDIRHYDLESVPMTWDPVDQNPRLLTLEVPGVTESRPSVLRGDHLFALLSSETHQEDPITYKGFVHKVELDRVKLSFSMSLLSRFVDGLTFKVNFTFNRQPLRVQHRALELTGRWLLWPMLFPVAPRDVPLLPSDVKLKLYDRSLESNPEQLQAMRHIVTGTTRPAPYIIFGPPGTGKTVTLVEAIKQVVKHLPKAHILACAPSNSGADLLCQRLRVHLPSSIYRLLAPSRDIRMVPEDIKPCCNWDAKKGEYVFPAKKKLQEYRVLITTLITAGRLVSAQFPIDHFTHIFIDEAGHCMEPESLVAIAGLMEVKETGDPGGQLVLAGDPRQLGPVLRSPLTQKHGLGYSLLERLLTYNSLYKKGPDGYDPQFITKLLRNYRSHPTILDIPNQLYYEGELQACADVVDRERFCRWAGLPRQGFPIIFHGVMGKDEREGNSPSFFNPEEAATVTSYLKLLLAPSSKKGKARLSPRSVGVISPYRKQVEKIRYCITKLDRELRGLDDIKDLKVGSVEEFQGQERSVILISTVRSSQSFVQLDLDFNLGFLKNPKRFNVAVTRAKALLIIVGNPLLLGHDPDWKVFLEFCKENGGYTGCPFPAKLDLQQGQNLLQGLSKLSPSTSGPHSHDYLPQEREGEGGLSLQVEPEWRNEL
With B1, the binding result in assay [1] was “binds”; in assay [2], “no binding”; in assay [3], “binds”; in assay [4] it was “binds”; in assay [5], “binds”; in assay [6], “no binding”.

B2: HA-tagged MOV10 (E1002X) (domain or fragment, UniProt Q9HCE1 1-1001)
chain: MPSKFSCRQLREAGQCFESFLVVRGLDMETDRERLRTIYNRDFKISFGTPAPGFSSMLYGMKIANLAYVTKTRVRFFRLDRWADVRFPEKRRMKLGSDISKHHKSLLAKIFYDRAEYLHGKHGVDVEVQGPHEARDGQLLIRLDLNRKEVLTLRLRNGGTQSVTLTHLFPLCRTPQFAFYNEDQELPCPLGPGECYELHVHCKTSFVGYFPATVLWELLGPGESGSEGAGTFYIARFLAAVAHSPLAAQLKPMTPFKRTRITGNPVVTNRIEEGERPDRAKGYDLELSMALGTYYPPPRLRQLLPMLLQGTSIFTAPKEIAEIKAQLETALKWRNYEVKLRLLLHLEELQMEHDIRHYDLESVPMTWDPVDQNPRLLTLEVPGVTESRPSVLRGDHLFALLSSETHQEDPITYKGFVHKVELDRVKLSFSMSLLSRFVDGLTFKVNFTFNRQPLRVQHRALELTGRWLLWPMLFPVAPRDVPLLPSDVKLKLYDRSLESNPEQLQAMRHIVTGTTRPAPYIIFGPPGTGKTVTLVEAIKQVVKHLPKAHILACAPSNSGADLLCQRLRVHLPSSIYRLLAPSRDIRMVPEDIKPCCNWDAKKGEYVFPAKKKLQEYRVLITTLITAGRLVSAQFPIDHFTHIFIDEAGHCMEPESLVAIAGLMEVKETGDPGGQLVLAGDPRQLGPVLRSPLTQKHGLGYSLLERLLTYNSLYKKGPDGYDPQFITKLLRNYRSHPTILDIPNQLYYEGELQACADVVDRERFCRWAGLPRQGFPIIFHGVMGKDEREGNSPSFFNPEEAATVTSYLKLLLAPSSKKGKARLSPRSVGVISPYRKQVEKIRYCITKLDRELRGLDDIKDLKVGSVEEFQGQERSVILISTVRSSQSFVQLDLDFNLGFLKNPKRFNVAVTRAKALLIIVGNPLLLGHDPDWKVFLEFCKENGGYTGCPFPAKLDLQQGQNLLQGLSKLSPSTSGPHSHDYLPQEREGEGGLSLQVEPEWRN
Turning to B2, the binding entry in assay [7] and in assay [8] was “no binding” in each case.
